Substrate in data set [1]: CC(=O)N[C@@H](CO)C(=O)N[C@@H](Cc1cnc[nH]1)C(=O)N[C@@H](CC(C)C)C(=O)NCC(=O)N[C@@H](CC(C)C)C(=O)N[C@@H](C)C(=O)N[C@@H](CCCNC(=N)N)C(=O)Nc1ccc([N+](=O)[O-])cc1
In words: (§1) Activity of human complement factor B assessed as substrate hydrolysis.

Substrate in data set [2]: CC(=O)N[C@@H](C)C(=O)N[C@@H](Cc1cnc[nH]1)C(=O)N[C@@H](CC(C)C)C(=O)NCC(=O)N[C@@H](CC(C)C)C(=O)N[C@@H](C)C(=O)N[C@@H](CCCNC(=N)N)C(=O)Nc1ccc([N+](=O)[O-])cc1
The data set is described as §1.

Substrate in data set [3]: CC(=O)N[C@@H](CCCNC(=N)N)C(=O)N[C@@H](C)C(=O)N[C@@H](CO)C(=O)N[C@@H](Cc1cnc[nH]1)C(=O)N[C@@H](CC(C)C)C(=O)NCC(=O)N[C@@H](CC(C)C)C(=O)N[C@@H](C)C(=O)N[C@@H](CCCNC(=N)N)C(=O)Nc1ccc([N+](=O)[O-])cc1
The description is as §1.

Substrate in data set [4]: CC(=O)N[C@@H](CCCCN)C(=O)N[C@@H](Cc1cnc[nH]1)C(=O)N[C@@H](CC(C)C)C(=O)NCC(=O)N[C@@H](CC(C)C)C(=O)N[C@@H](C)C(=O)N[C@@H](CCCNC(=N)N)C(=O)Nc1ccc([N+](=O)[O-])cc1
Described as §1.

Substrate in data set [5]: CC(=O)N[C@@H](C)C(=O)N[C@@H](CCCNC(=N)N)C(=O)N[C@@H](C)C(=O)N[C@@H](CO)C(=O)N[C@@H](Cc1cnc[nH]1)C(=O)N[C@@H](CC(C)C)C(=O)NCC(=O)N[C@@H](CC(C)C)C(=O)N[C@@H](C)C(=O)N[C@@H](CCCNC(=N)N)C(=O)Nc1ccc([N+](=O)[O-])cc1
Described as §1.

Substrate in data set [6]: CC(=O)N[C@@H](C)C(=O)N[C@@H](CO)C(=O)N[C@@H](Cc1cnc[nH]1)C(=O)N[C@@H](CC(C)C)C(=O)NCC(=O)N[C@@H](CC(C)C)C(=O)N[C@@H](C)C(=O)N[C@@H](CCCNC(=N)N)C(=O)Nc1ccc([N+](=O)[O-])cc1
The description is as §1.

Substrate in data set [7]: CC(=O)N[C@@H](CO)C(=O)N[C@@H](Cc1cnc[nH]1)C(=O)N[C@@H](CC(C)C)C(=O)NCC(=O)N[C@@H](CC(C)C)C(=O)N[C@@H](C)C(=O)N[C@@H](CCCNC(=N)N)C(=O)Nc1ccc([N+](=O)[O-])cc1
Nature of the data set: (§2) Ratio of kcat to Km for human complement factor B. An outline of the steps:
(§3)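 Human factor B (25, 50 or 75 nM) in 100 mM glycine-HCl, 154 mM NaCl, pH 9.5, 37 °C. Substrate and enzyme were preincubated separately for 5 min, then mixed. Eight pNA-peptide concentrations (0.2–10.0 mM, or 0.1–3.0 mM) were run in duplicate. A405 was read every 30–60 s for 30–120 min. Initial velocities were fitted by weighted nonlinear Michaelis-Menten regression.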

Substrate in data set [8]: CC(=O)N[C@@H](C)C(=O)N[C@@H](Cc1cnc[nH]1)C(=O)N[C@@H](CC(C)C)C(=O)NCC(=O)N[C@@H](CC(C)C)C(=O)N[C@@H](C)C(=O)N[C@@H](CCCNC(=N)N)C(=O)Nc1ccc([N+](=O)[O-])cc1
Described as §2. An outline of the steps: as §3

Substrate in data set [9]: CC(=O)N[C@@H](CCCNC(=N)N)C(=O)N[C@@H](C)C(=O)N[C@@H](CO)C(=O)N[C@@H](Cc1cnc[nH]1)C(=O)N[C@@H](CC(C)C)C(=O)NCC(=O)N[C@@H](CC(C)C)C(=O)N[C@@H](C)C(=O)N[C@@H](CCCNC(=N)N)C(=O)Nc1ccc([N+](=O)[O-])cc1
Described as §2. In a few lines: as §3

Substrate in data set [10]: CC(=O)N[C@@H](CCCCN)C(=O)N[C@@H](Cc1cnc[nH]1)C(=O)N[C@@H](CC(C)C)C(=O)NCC(=O)N[C@@H](CC(C)C)C(=O)N[C@@H](C)C(=O)N[C@@H](CCCNC(=N)N)C(=O)Nc1ccc([N+](=O)[O-])cc1
The description is as §2. In a few lines: as §3

Substrate in data set [11]: CC(=O)N[C@@H](C)C(=O)N[C@@H](CCCNC(=N)N)C(=O)N[C@@H](C)C(=O)N[C@@H](CO)C(=O)N[C@@H](Cc1cnc[nH]1)C(=O)N[C@@H](CC(C)C)C(=O)NCC(=O)N[C@@H](CC(C)C)C(=O)N[C@@H](C)C(=O)N[C@@H](CCCNC(=N)N)C(=O)Nc1ccc([N+](=O)[O-])cc1
Described as §2. An outline of the steps: as §3

Substrate in data set [12]: CC(=O)N[C@@H](C)C(=O)N[C@@H](CO)C(=O)N[C@@H](Cc1cnc[nH]1)C(=O)N[C@@H](CC(C)C)C(=O)NCC(=O)N[C@@H](CC(C)C)C(=O)N[C@@H](C)C(=O)N[C@@H](CCCNC(=N)N)C(=O)Nc1ccc([N+](=O)[O-])cc1
The data set is described as §2. An outline of the steps: as §3

B1: Complement factor B (Homo sapiens), P00751 (protein)
chain: MGSNLSPQLCLMPFILGLLSGGVTTTPWSLARPQGSCSLEGVEIKGGSFRLLQEGQALEYVCPSGFYPYPVQTRTCRSTGSWSTLKTQDQKTVRKAECRAIHCPRPHDFENGEYWPRSPYYNVSDEISFHCYDGYTLRGSANRTCQVNGRWSGQTAICDNGAGYCSNPGIPIGTRKVGSQYRLEDSVTYHCSRGLTLRGSQRRTCQEGGSWSGTEPSCQDSFMYDTPQEVAEAFLSSLTETIEGVDAEDGHGPGEQQKRKIVLDPSGSMNIYLVLDGSDSIGASNFTGAKKCLVNLIEKVASYGVKPRYGLVTYATYPKIWVKVSEADSSNADWVTKQLNEINYEDHKLKSGTNTKKALQAVYSMMSWPDDVPPEGWNRTRHVIILMTDGLHNMGGDPITVIDEIRDLLYIGKDRKNPREDYLDVYVFGVGPLVNQVNINALASKKDNEQHVFKVKDMENLEDVFYQMIDESQSLSLCGMVWEHRKGTDYHKQPWQAKISVIRPSKGHESCMGAVVSEYFVLTAAHCFTVDDKEHSIKVSVGGEKRDLEIEVVLFHPNYNINGKKEAGIPEFYDYDVALIKLKNKLKYGQTIRPICLPCTEGTTRALRLPPTTTCQQQKEELLPAQDIKALFVSEEEKKLTRKEVYIKNGDKKGSCERDAQYAPGYDKVKDISEVVTPRFLCTGGVSPYADPNTCRGDSGGPLIVHKRSRFIQVGVISWGVVDVCKNQKRQKQVPAHARDFHINLFQVLPWLKEKLQDEDLGFL
By Km is commonly meant the concentration of substrate that gives half-maximal velocity. The kcat is the number of substrate molecules converted per active site and unit of time at saturation. As to B1, the Km came to 1050 µM in [1]; 2840 µM in data set [2]; 15800 µM in data set [3]; 2790 µM in [4]; 12400 µM in data set [5]; 2190 µM in [6]. Besides, the kcat is 8.38 s⁻¹ in data set [1]; 8.2 s⁻¹ in data set [2]; 12.8 s⁻¹ in data set [3]; 8.25 s⁻¹ in [4]; 12.6 s⁻¹ in [5]; 10.2 s⁻¹ in [6]. Further, the kcat/Km in [7] was found to be 8320; in data set [8] it was 2880; in data set [9], 810; in [10] it was 3040; in data set [11], 1020; in data set [12] it was 4670.

The record behind these values is ChEMBL document CHEMBL1156524, “Profiling the enzymatic properties and inhibition of human complement factor B” (J Biol Chem, 2007).
